Laboratory results as given in patent US8637090B2, “Gallium formulation for the treatment and prevention of infectious diseases” (Aridis Pharmaceuticals, priority 2009, dated 2014).

System: mucoid and non-mucoid strains of P. aeruginosa
Test: Minimum inhibitory concentration in iron-starved BM-2 broth
Type: cell-based
Conditions: for MIC: 24 hours

Compound: O=[N+]([O-])[O-].O=[N+]([O-])[O-].O=[N+]([O-])[O-].[Ga+3] [Gallium, gallium nitrate]
- MIC (mucoid strain 20JR): <1 µg/mL
- MIC (mucoid strain 35LK): <1 µg/mL
- MIC (mucoid strain 47JS): <1 µg/mL
- MIC (mucoid strain 62LL): <1 µg/mL
- MIC (mucoid strain 96JC): <1 µg/mL
- MIC (mucoid strain 97JE): <1 µg/mL
- MIC (non-mucoid strain 9HN): <2 µg/mL
- MIC (non-mucoid strain 30IX): <1 µg/mL
- MIC (non-mucoid strain 30JS): <1 µg/mL
- MIC (non-mucoid strain 38LL): <1 µg/mL
- MIC (non-mucoid strain 39IV): <1 µg/mL
- MIC (non-mucoid strain 46IV): <1 µg/mL
- MIC (non-mucoid strain 55HY): <1 µg/mL

Compound: NC[C@H]1O[C@H](O[C@H]2[C@H](O)[C@@H](O[C@H]3O[C@H](CO)[C@@H](O)[C@H](N)[C@H]3O)[C@H](N)C[C@@H]2N)[C@H](N)C[C@@H]1O [Tobramycin]
- MIC (Pseudomonas aeruginosa, 24 h, mucoid strain 20JR, read-out: MIC): 4 µg/mL (≈ 8.56 µM)
- MIC (Pseudomonas aeruginosa, 24 h, mucoid strain 35LK, read-out: MIC): 8 µg/mL (≈ 17.1 µM)
- MIC (Pseudomonas aeruginosa, 24 h, mucoid strain 47JS, read-out: MIC): 32 µg/mL (≈ 68.4 µM)
- MIC (Pseudomonas aeruginosa, 24 h, mucoid strain 62LL, read-out: MIC): 1 µg/mL (≈ 2.14 µM)
- MIC (Pseudomonas aeruginosa, 24 h, mucoid strain 96JC, read-out: MIC): 16 µg/mL (≈ 34.2 µM)
- MIC (Pseudomonas aeruginosa, 24 h, non-mucoid strain 30IX, read-out: MIC): 16 µg/mL (≈ 34.2 µM)
- MIC (Pseudomonas aeruginosa, 24 h, non-mucoid strain 30JS, read-out: MIC): 1 µg/mL (≈ 2.14 µM)
- MIC (Pseudomonas aeruginosa, 24 h, non-mucoid strain 38LL, read-out: MIC): 16 µg/mL (≈ 34.2 µM)
- MIC (Pseudomonas aeruginosa, 24 h, non-mucoid strain 39IV, read-out: MIC): 4 µg/mL (≈ 8.56 µM)
- MIC (Pseudomonas aeruginosa, 24 h, non-mucoid strain 46IV, read-out: MIC): 64 µg/mL (≈ 137 µM)
- susceptibility class beside MIC (mucoid strain 20JR): (S)
- susceptibility class beside MIC (mucoid strain 35LK): (I)
- susceptibility class beside MIC (mucoid strain 41JQ): (R)
- susceptibility class beside MIC (mucoid strain 47JS): (R)
- susceptibility class beside MIC (mucoid strain 62LL): (S)
- susceptibility class beside MIC (mucoid strain 96JC): (R)*
- susceptibility class beside MIC (mucoid strain 97JE): (R)
- susceptibility class beside MIC (non-mucoid strain 9HN): (R)
- susceptibility class beside MIC (non-mucoid strain 30IX): (R)
- susceptibility class beside MIC (non-mucoid strain 30JS): (S)
- susceptibility class beside MIC (non-mucoid strain 39IV): (S)
- susceptibility class beside MIC (non-mucoid strain 46IV): (R)
- susceptibility class beside MIC (non-mucoid strain 55HY): (R)

Converted amounts (≈) assume the structure as drawn. Read-outs that look alike come from different tables or passages of the source. Marks after values point to notes of the source that are not given here.
